Measured values from the supplement of paper PMC10037445.
In all, about 2,900 compounds were measured (“NF-kB SEAP reporter activity, fold change vs agonist alone”: median about 0.99, highest 2% from about 2.6 on). The list shows a part of the results.

Assays:
RAW-Dual [1] = experiment: NF-kB SEAP reporter activity, fold change vs agonist alone; higher = enhanced NF-kB activity; settings: library stock concentration (final ~1000-fold dilution): 10 mM
How it was run: (§1)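 Cytotoxic wells were those whose IncuCyte confluency was below 70% of agonist controls in both mask sets. The cells were RAW-Dual macrophages at 50,000 cells/well in DMEM on 384-well plates, dosed with 50 nL of library stock by pin tool, stimulated with a PRR agonist 1 h later, and kept at 37 °C, 5% CO2 for 20 hours. IRF and NF-κB reporter activity, as fold change over agonist-alone wells, came from supernatant read by QuantiLuc luminescence and QuantiBlue absorbance, respectively.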

RAW-Dual [2] = experiment: NF-kB SEAP reporter activity, fold change vs agonist alone; cytotoxicity flag (confluency mask): not cytotoxic; higher = enhanced NF-kB activity
How it was run: as §1

RAW-Dual [3] = experiment: NF-kB SEAP reporter activity, fold change vs agonist alone; cytotoxicity flag (confluency mask): cytotoxic (confluency <70% of control); higher = enhanced NF-kB activity
How it was run: as §1

[4] = cytotoxicity flag (confluency mask): not cytotoxic, agonist: Imiquimod (TLR7) […]
[5] = cytotoxicity flag (confluency mask): not cytotoxic, agonist: MPLA (TLR4) […]
[6] = agonist: ODN 1826 (TLR9) 0.5 ug/mL
[7] = agonist: Pam2CSK4 (TLR2/6) 0.1 ug/mL
[8] = agonist: Pam3CSK4 (TLR2/1) 0.1 ug/mL

For `Cl.OC(CCN1CCCCC1)(c1ccccc1)C1CCCCC1` (stereo not given), the “NF-kB SEAP reporter activity” value (RAW-Dual [1]; [4]) was 1.22 and the “NF-kB SEAP reporter activity” value (RAW-Dual [1]; [5]) was 1.14.

With `Cl.OC(CCN1CCCCC1)(c1ccccc1)C1CCCCC1` (stereo not given) (library stock concentration (final ~1000-fold dilution): 10 mM) the “NF-kB SEAP reporter activity” value (RAW-Dual [2]; agonist: LPS (TLR4) 0.1 ug/mL) was 0.948, the “NF-kB SEAP reporter activity” value (RAW-Dual [2]; [6]) was 0.904 and the “NF-kB SEAP reporter activity” value (RAW-Dual [2]; [7]) was 0.774. For the same compound, the “NF-kB SEAP reporter activity” value (RAW-Dual [2]; [8]) was 1.26.

With `CC1=C(CSC(=S)N2CCCCC2)C(=O)c2ccccc2C1=O` the “NF-kB SEAP reporter activity” value (RAW-Dual [1]; cytotoxicity flag (confluency mask): cytotoxic (confluency <70% of control), agonist: Imiquimod (TLR7) […]) was 0.943 and the “NF-kB SEAP reporter activity” value (RAW-Dual [1]; cytotoxicity flag (confluency mask): cytotoxic (confluency <70% of control), agonist: MPLA (TLR4) […]) was 1.14.

`CC1=C(CSC(=S)N2CCCCC2)C(=O)c2ccccc2C1=O` (library stock concentration (final ~1000-fold dilution): 10 mM) was tested, and the “NF-kB SEAP reporter activity” value (RAW-Dual [3]; agonist: LPS (TLR4) 0.1 ug/mL) was 0.241, the “NF-kB SEAP reporter activity” value (RAW-Dual [3]; [6]) was 0.829 and the “NF-kB SEAP reporter activity” value (RAW-Dual [3]; [7]) was 0.876. For the same compound, the “NF-kB SEAP reporter activity” value (RAW-Dual [3]; [8]) was 0.961.

In the case of `COc1cc(O)c(C(=O)Nc2nc(C(=O)NCCN(C(C)C)C(C)C)cs2)cc1OC.Cl.O.O.O` (library stock concentration (final ~1000-fold dilution): 10 mM), the “NF-kB SEAP reporter activity” value (RAW-Dual [2]; agonist: LPS (TLR4) 0.1 ug/mL) is reported as 1.43, the “NF-kB SEAP reporter activity” value (RAW-Dual [2]; [6]) is reported as 0.952 and the “NF-kB SEAP reporter activity” value (RAW-Dual [2]; [7]) is reported as 0.95. The “NF-kB SEAP reporter activity” value (RAW-Dual [2]; [8]) was 1.01.

`COc1cc(O)c(C(=O)Nc2nc(C(=O)NCCN(C(C)C)C(C)C)cs2)cc1OC.Cl.O.O.O` was tested, and the “NF-kB SEAP reporter activity” value (RAW-Dual [1]; [5]) was 1.02.

In the case of `NC(CSC(c1ccccc1)(c1ccccc1)c1ccccc1)C(=O)O` (stereo not given) (library stock concentration (final ~1000-fold dilution): 10 mM), the “NF-kB SEAP reporter activity” value (RAW-Dual [2]; agonist: LPS (TLR4) 0.1 ug/mL) is reported as 0.775, the “NF-kB SEAP reporter activity” value (RAW-Dual [2]; [6]) is reported as 0.732 and the “NF-kB SEAP reporter activity” value (RAW-Dual [2]; [7]) is reported as 0.699. The “NF-kB SEAP reporter activity” value (RAW-Dual [2]; [8]) was 0.656.

For `NC(CSC(c1ccccc1)(c1ccccc1)c1ccccc1)C(=O)O` (stereo not given), the “NF-kB SEAP reporter activity” value (RAW-Dual [1]; [4]) was 0.946 and the “NF-kB SEAP reporter activity” value (RAW-Dual [1]; [5]) was 0.976.

For `OCC(O)CN1CCN(c2ccccc2)CC1` (stereo not given), the “NF-kB SEAP reporter activity” value (RAW-Dual [1]; [4]) was 0.931 and the “NF-kB SEAP reporter activity” value (RAW-Dual [1]; [5]) was 0.997.

For `OCC(O)CN1CCN(c2ccccc2)CC1` (stereo not given) (library stock concentration (final ~1000-fold dilution): 10 mM), the “NF-kB SEAP reporter activity” value (RAW-Dual [2]; agonist: LPS (TLR4) 0.1 ug/mL) was 0.917, the “NF-kB SEAP reporter activity” value (RAW-Dual [2]; [6]) was 0.97 and the “NF-kB SEAP reporter activity” value (RAW-Dual [2]; [7]) was 1.03. The “NF-kB SEAP reporter activity” value (RAW-Dual [2]; [8]) was 1.12.

For `OCCc1ccc(O)cc1` (library stock concentration (final ~1000-fold dilution): 10 mM), the “NF-kB SEAP reporter activity” value (RAW-Dual [2]; agonist: LPS (TLR4) 0.1 ug/mL) was 1.25, the “NF-kB SEAP reporter activity” value (RAW-Dual [2]; [6]) was 1.09 and the “NF-kB SEAP reporter activity” value (RAW-Dual [2]; [7]) was 1.13. For the same compound, the “NF-kB SEAP reporter activity” value (RAW-Dual [2]; [8]) was 1.03.

`OCCc1ccc(O)cc1` was tested, and the “NF-kB SEAP reporter activity” value (RAW-Dual [1]; [4]) was 0.881 and the “NF-kB SEAP reporter activity” value (RAW-Dual [1]; [5]) was 1.06.

With `Cl.N=C(N)c1ccccc1` (library stock concentration (final ~1000-fold dilution): 10 mM) the “NF-kB SEAP reporter activity” value (RAW-Dual [2]; agonist: LPS (TLR4) 0.1 ug/mL) was 1.02, the “NF-kB SEAP reporter activity” value (RAW-Dual [2]; [6]) was 0.954 and the “NF-kB SEAP reporter activity” value (RAW-Dual [2]; [7]) was 1.1. For the same compound, the “NF-kB SEAP reporter activity” value (RAW-Dual [2]; [8]) was 1.02.

For `Cl.N=C(N)c1ccccc1`, the “NF-kB SEAP reporter activity” value (RAW-Dual [1]; [5]) was 1.1.
